{"source": "ChEMBL document CHEMBL4888484", "about": "“Replenishing the malaria drug discovery pipeline: Screening and hit evaluation of the MMV Hit Generation Library 1 (HGL1) against asexual blood stage Plasmodium falciparum ,using a nano luciferase reporter read-out” (2022)", "note": "Hit rate of the full screen: of about 150,000 compounds, about 540 (0.36%) showed an effect of 50% or more. The list shows a part of the results."}
{"system": "Plasmodium falciparum", "test": "Primary screen in NF54 nanoGlo assay, in single point, at 2uM, 72h; a lower Z score goes with more inhibition", "assay_type": "functional, Erythrocyte", "conditions": "timepoint 72 hour", "units": {"% Inhibition": "%"}}
{"smiles": "CCCN1C(=O)N(c2ccccc2C)C(=O)[C@@H]1CC", "% Inhibition": -14, "Z score": 1.8}
{"smiles": "CCN(CCO)C(=O)c1ccc(C#N)cc1C", "% Inhibition": -8, "Z score": 1.03}
{"smiles": "Cc1nc(C)c(S(=O)(=O)N2CCN(C)c3cc(Cl)ccc32)s1", "% Inhibition": 4, "Z score": -0.58}
{"smiles": "CN(Cc1ncc[nH]1)C(=O)C1CC=CCC1C(=O)N1CCOCC1", "note": "(configuration not stated)", "% Inhibition": -3, "Z score": 0.38}
{"smiles": "O=C(c1ccccc1)N1CCC([C@H]2c3nccn3CCCN2Cc2cccnc2)CC1", "% Inhibition": -2, "Z score": 0.34}
{"smiles": "C=CCOC[C@@H](O)CN(Cc1ccco1)Cc1ccc(C)o1", "% Inhibition": -1, "Z score": 0.1}
{"smiles": "COc1ccc2cc(C(=O)N3CCN(c4cc(=O)n(C)c(=O)n4C)CC3)[nH]c2c1", "% Inhibition": -4, "Z score": 0.68}
{"smiles": "O=C(Cc1cccc(F)c1)OCc1nc(-c2ccccc2)no1", "% Inhibition": 5, "Z score": -0.58}
{"smiles": "Cc1nnc(NC(=O)N2CCC(CCc3ccc(F)cc3F)CC2)s1", "% Inhibition": 1, "Z score": -0.17}
{"smiles": "CCS(=O)(=O)N1CCc2nc(N3CCN(C)CC3)nc(Oc3ccc(F)cc3F)c2C1", "% Inhibition": -13, "Z score": 2.12}
{"smiles": "Cc1nc(C)c(C(C)NC(=O)NC2CCCC(C)C2)s1", "note": "(configuration not stated)", "% Inhibition": -4, "Z score": 0.59}
{"smiles": "CCOc1ccc(CN2CC[C@H](NC(=O)NCCOC)C2)cn1", "% Inhibition": -5, "Z score": 0.69}
{"smiles": "N#Cc1cccc(NC(=O)N2CCN(c3ncc[nH]3)CC2)c1", "% Inhibition": -14, "Z score": 1.6}
{"smiles": "O=C(COC[C@H]1CCCO1)Nc1ccc2[nH]c(=O)sc2c1", "% Inhibition": 42, "Z score": -5.46}
{"smiles": "CCN1CCN(C(=O)CCc2c(OC)nc3c(c(C)nn3-c3ccc(C)cc3)c2C)CC1", "% Inhibition": 1, "Z score": -0.21}
{"smiles": "CCCc1cnc(NC(=O)NCC2CCCC(O)C2)s1", "note": "(configuration not stated)", "% Inhibition": -8, "Z score": 1.03}
{"smiles": "CS(=O)(=O)c1cn(Cc2ccccc2)c(C#N)c1N", "% Inhibition": 7, "Z score": -1.01}
{"smiles": "O=C(NCc1ccco1)c1ccccc1NC(=O)c1cccc2ccccc12", "% Inhibition": -10, "Z score": 1.49}
{"smiles": "Clc1cc(CNC2(c3noc(C4CC4)n3)CCCC2)c2c(c1)COCO2", "% Inhibition": 0, "Z score": 0.08}
{"smiles": "Cc1nnc(COc2nc(C(C)C)no2)n1C1CC1", "% Inhibition": 8, "Z score": -0.9}
{"smiles": "CN1CCN(C(=O)c2ccc3c(c2)CCC3)C[C@]12CCNC(=O)CC2", "% Inhibition": -14, "Z score": 2.4}
{"smiles": "Cc1nc2ccnn2c(C)c1CCC(=O)N1CCOC2CCCC21", "note": "(configuration not stated)", "% Inhibition": -1, "Z score": 0.2}
{"smiles": "O=C(NCc1ccc(O)cc1O)N1CC[C@@H]2CCCC[C@H]2C1", "% Inhibition": -9, "Z score": 1.57}
{"smiles": "CC(C)CN1C(=O)CNC12CCN(S(=O)(=O)c1cccc(C(F)(F)F)c1)CC2", "% Inhibition": -8, "Z score": 0.89}
{"smiles": "Cn1ncc(Cl)c1C(=O)Nc1cccc2ccccc12", "% Inhibition": 2, "Z score": -0.31}
{"smiles": "CC(C)(C)OC(=O)NCCN1C(=O)[C@@H]2CCCN2C1=O", "% Inhibition": -8, "Z score": 1.31}
{"smiles": "O=C(NCCNc1cc(N2CCCC2)cnn1)Nc1ccccc1", "% Inhibition": -8, "Z score": 1.49}
{"smiles": "O=C(N[C@H]1CCC12CCOCC2)c1c[nH]c(=O)[nH]1", "% Inhibition": 0, "Z score": -0.01}
{"smiles": "CCN1CCN(c2cc(C(=O)O)c3cc(NS(=O)(=O)c4ccc(C)cc4)ccc3n2)CC1", "% Inhibition": -8, "Z score": 1.4}
{"smiles": "C#CCN(CC#C)S(=O)(=O)c1ccc(OCC(F)(F)F)nc1", "% Inhibition": -5, "Z score": 0.62}
{"smiles": "Cn1cc(CNc2cccc(CNC(=O)OC(C)(C)C)c2)cn1", "% Inhibition": -7, "Z score": 1.04}
{"smiles": "CCCc1ncc(CNC(=O)N2CC3(CCOCC3)[C@@H]3CCC[C@@H]32)o1", "% Inhibition": -20, "Z score": 3.7}
{"smiles": "CCN1CCN(C(=O)c2cc3occc3n2Cc2ccccc2Cl)CC1", "% Inhibition": -3, "Z score": 0.36}
{"smiles": "O=C(CCc1ccsc1)N1CCC2(CC1)[C@H](O)C[C@@H]2OCCO", "% Inhibition": -2, "Z score": 0.46}
{"smiles": "CC(C)c1ccc(S(=O)(=O)N2CCC3(CC2)NCCN=C3NC2CCCCCC2)cc1", "% Inhibition": -11, "Z score": 1.48}
{"smiles": "CCn1nccc1-c1cccc(-c2noc(/C=C/c3ccc(C)cc3)n2)c1", "% Inhibition": 4, "Z score": -0.5}
{"smiles": "N[C@H]1CCN(C(=O)Cc2csc(-c3ccc(Cl)cc3Cl)n2)C1", "% Inhibition": -7, "Z score": 1.06}
{"smiles": "CCOCCn1nc(C2CC2)nc1C1CC1", "% Inhibition": -6, "Z score": 0.82}
{"smiles": "CC(C)n1ncc2c1C[C@@H](NC(=O)Nc1ccc(F)cc1)CC2", "% Inhibition": -10, "Z score": 1.07}
{"smiles": "COC(=O)C1CC(O)CN1CC#Cc1ccc(F)cc1", "note": "(configuration not stated)", "% Inhibition": -6, "Z score": 0.66}
{"smiles": "c1csc(-c2cnc(CN3CCCOc4ccccc43)o2)c1", "% Inhibition": -9, "Z score": 1.25}
{"smiles": "CC(=O)N1N=C(c2cc(-c3ccc4ccccc4c3)n[nH]2)O[C@H]1c1ccccc1C(F)(F)F", "% Inhibition": -1, "Z score": 0.22}
{"smiles": "Cc1cc(C)c(Cn2cc(Cl)c(=O)[nH]c2=O)c(C)c1", "% Inhibition": 33, "Z score": -3.78}
{"smiles": "CCN(CC)C(=O)CN(C)CC(=O)N[C@@H](C)c1ccccc1", "% Inhibition": -19, "Z score": 1.61}
{"smiles": "CC(C)c1nnc(CN2CCCN(c3cccc(F)c3F)CC2)n1C", "% Inhibition": 16, "Z score": -2.09}
{"smiles": "Cc1ccc(OCC(=O)N2CCC[C@H](c3nc4ccccc4s3)C2)c(C)c1", "% Inhibition": -18, "Z score": 2.07}
{"smiles": "O=C(NC[C@H](NC(=O)Nc1cccnc1)C1CC1)Nc1cccnc1", "% Inhibition": -8, "Z score": 1.14}
{"smiles": "CCCc1nc(C)c(C(=O)N[C@H]2CC[C@H](CO)CC2)o1", "% Inhibition": 3, "Z score": -0.4}
{"smiles": "CN1N=C(c2nc(COc3ccccc3)no2)CCC1=O", "% Inhibition": -2, "Z score": 0.22}
{"smiles": "CCC(=O)N(Cc1cccc(C)c1)c1ccc(CC(=O)NCC2CC2)cc1", "% Inhibition": -5, "Z score": 0.83}
{"smiles": "O=C(c1cc(Cl)c[nH]1)N(CCc1ccccc1)Cc1ccccc1", "% Inhibition": 0, "Z score": 0.01}
{"smiles": "C[C@@H]1CN(C(=O)c2ccc(-c3cnccn3)cc2)C[C@H](C)O1", "% Inhibition": -12, "Z score": 2.42}
{"smiles": "FC(F)Cn1ccc(NCC2=CCCOC2)n1", "% Inhibition": -17, "Z score": 1.86}
{"smiles": "COc1cccc(-c2nn(Cc3ccccc3F)c(-c3cccc(OC)c3)c2Br)c1", "% Inhibition": 28, "Z score": -3.2}
{"smiles": "O=C(c1cnccn1)N1CCC(OCc2ccccn2)CC1", "% Inhibition": -8, "Z score": 1.2}
{"smiles": "CC1(C)CN(S(=O)(=O)c2cncc(F)c2)[C@H]1C1CC1", "% Inhibition": -1, "Z score": 0.09}
{"smiles": "CCCn1nc(C(=O)N(C2CCCCC2)C2CC2)ccc1=O", "% Inhibition": -13, "Z score": 2.42}
{"smiles": "COCCn1cncc1CNC(=O)c1cccc(-c2nccc(OC)n2)c1", "% Inhibition": -10, "Z score": 1.51}
{"smiles": "O=C([C@@H]1CNCCN1C(=O)CCn1nnc2ccccc21)N1CCCC1", "% Inhibition": -5, "Z score": 1}
{"smiles": "CC(CCCOc1ccccc1C(N)=O)NC(c1cc(F)ccc1F)C1CC1", "note": "(configuration not stated)", "% Inhibition": -13, "Z score": 1.48}
{"smiles": "CN(C(=O)C1CCN(CCOC[C@H]2CCCO2)CC1)c1ccccc1", "% Inhibition": -8, "Z score": 1.21}
{"smiles": "O=C(O)Cc1cccc(NS(=O)(=O)c2cccc3c2CCCC3)c1", "% Inhibition": 11, "Z score": -2.38}
{"smiles": "COCC1(c2noc(-c3cnn4c(C)c(C)ccc34)n2)CCOCC1", "% Inhibition": 2, "Z score": -0.2}
{"smiles": "Cc1ccc2cccc(S(=O)(=O)NC3CC(CO)(CO)C3)c2n1", "% Inhibition": 13, "Z score": -1.61}
{"smiles": "C[C@H](O)c1ccc(CNCc2cnc(N3CCOCC3)nc2)cc1", "% Inhibition": -10, "Z score": 1.17}
{"smiles": "CC(C)(C)C1CCCC(NC(=O)CC2(O)CCCC2)CC1", "note": "(configuration not stated)", "% Inhibition": -8, "Z score": 1.16}
{"smiles": "Cc1n[nH]c(C)c1CCCNc1nnc(C2CC2)o1", "% Inhibition": -7, "Z score": 1}
{"smiles": "COCC1(NC(=O)[C@@H](c2ccccc2)n2nnnc2C)CCCC1", "% Inhibition": -2, "Z score": 0.23}
{"smiles": "COc1ccc(-c2cc3n(n2)CCC(=O)N3Cc2ccc(C(=O)NCc3ccccc3C)cc2)cc1", "% Inhibition": 18, "Z score": -2.13}
{"smiles": "O=C1[C@H]2CCCN2C(=O)N1C1CCN(CC(F)(F)F)C1", "note": "(some centres not stated)", "% Inhibition": -13, "Z score": 1.48}
{"smiles": "Cc1ccncc1NC(=O)NCCCN1CCCC1=O", "% Inhibition": -2, "Z score": 0.18}
{"smiles": "CCOC(=O)Cc1csc(NC(=O)C2CCC2)n1", "% Inhibition": -1, "Z score": 0.06}
{"smiles": "Cc1cc(Cl)c(OCCCCNCCO)c(Cl)c1", "% Inhibition": -6, "Z score": 0.74}
{"smiles": "Cc1cccc(NC(=O)c2ccsc2)n1", "% Inhibition": -8, "Z score": 0.72}
{"smiles": "O=S(=O)(NCC[C@H](O)c1ccsc1)c1cccs1", "% Inhibition": 3, "Z score": -0.43}
{"smiles": "CCCN1CCCN(C(=O)c2ccc(NC(=O)NC(C)C)cc2)CC1", "% Inhibition": -20, "Z score": 3.75}
{"smiles": "O=C(c1ccno1)N1CCN(Cc2ccc3c(c2)OCO3)CC1", "% Inhibition": -13, "Z score": 1.35}
{"smiles": "O=C(NCC1(c2ccccc2)CC1)[C@@H]1CCCN1C1CCCC1", "% Inhibition": -2, "Z score": 0.29}
{"smiles": "O=C(NCc1cccc(COC2CCOCC2)c1)[C@@H]1COCCN1CC(F)F", "% Inhibition": -2, "Z score": 0.38}
{"smiles": "CNC(=O)CN1CCN(c2ncnc3cc4ccccc4cc23)CC1", "% Inhibition": 10, "Z score": -1.96}
{"smiles": "CCOC(=O)c1c(S(=O)(=O)N2CCC[C@H](C(=O)NC3CCC(C)CC3)C2)c(C)n(CC)c1C", "note": "(some centres not stated)", "% Inhibition": -6, "Z score": 0.51}
{"smiles": "Cc1ccccc1CN1CCCn2nc(C(=O)N[C@@H](C)C(=O)NCCN3CCOCC3)cc2C1=O", "% Inhibition": -3, "Z score": 0.36}
{"smiles": "O=C(CCn1cnc2cc(-c3noc(-c4ccsc4)n3)ccc21)N1CCCCCC1", "% Inhibition": -18, "Z score": 2.3}
{"smiles": "C=CCN1CC(=O)N(CCCn2ccnc2)C1=O", "% Inhibition": -10, "Z score": 1.15}
{"smiles": "C[C@@H]1CNCCN1S(=O)(=O)c1cccc(C(=O)NCc2ccon2)c1", "% Inhibition": -3, "Z score": 0.58}
{"smiles": "O=C(O)[C@H]1CN(C(=O)CCC2CCCC2)C[C@@H]1C1CC1", "% Inhibition": -6, "Z score": 0.74}
